Measurements published in PubChem BioAssay AID504861 (Broad Institute, 2011).
About 290 (24%) of roughly 1,200 compounds were called active.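 Rule for the calls: active = compounds lowering cell viability signal with fitted half-maximal concentration at most ten times their highest tested concentration; inconclusive = flat fit with 30 to 70% signal loss, or poor fit; inactive = the rest.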 Inconclusive results, whose numbers are uncertain, are shown.

assay: cytotoxicity in HEK293T cells – cell-based, CellTiter-Glo luminescence, cherry-picks, cytotoxicity control for LMP1 NF-kB inhibitor project, dose response (AID 504861); conditions: HEK293T viability, CellTiter-Glo ATP luminescence, 48 h; at 26 µM (top of the series)

Row | SMILES | activity change, negative = cytotoxicity
1 | CC(=NNC(=S)N1CC2CCC(CC2)C1)c1nccs1 | inconclusive: -43%
